No constants are given. Whether binding was seen depends on the method and setting. Binding seen in cells or lysates may run through a third protein. Some results given as binding are weak or reduced against the parent protein; the word gives no strength. Sequences can lack the tags named with a protein.
Assays:
Assay in all cases: co-IP; GFP-trap (GFP-nanotrap agarose) from lysates of transfected HEK293T cells; lysis in 0.5% NP-40, 100 mM Tris-HCl pH 7.5 in PBS (in dH2O for GFP-SNX17); 1 h at 4 °C; western blot of endogenous Retriever subunits, CCC subunits and RAB32 or of co-expressed mCherry-LRMDA
GFP-RAB32 Q85L = biological target: T1, GFP-RAB32 Q85L (UniProt Q13637)
T1 sequence: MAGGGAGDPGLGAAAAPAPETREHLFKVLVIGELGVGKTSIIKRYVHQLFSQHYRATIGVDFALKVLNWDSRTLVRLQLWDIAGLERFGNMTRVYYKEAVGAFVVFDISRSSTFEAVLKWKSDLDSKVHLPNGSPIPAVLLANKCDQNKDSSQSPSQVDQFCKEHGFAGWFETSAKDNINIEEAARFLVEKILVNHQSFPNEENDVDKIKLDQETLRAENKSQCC

GFP-RAB32 = biological target: T2, GFP-RAB32 (UniProt Q13637)
T2 sequence: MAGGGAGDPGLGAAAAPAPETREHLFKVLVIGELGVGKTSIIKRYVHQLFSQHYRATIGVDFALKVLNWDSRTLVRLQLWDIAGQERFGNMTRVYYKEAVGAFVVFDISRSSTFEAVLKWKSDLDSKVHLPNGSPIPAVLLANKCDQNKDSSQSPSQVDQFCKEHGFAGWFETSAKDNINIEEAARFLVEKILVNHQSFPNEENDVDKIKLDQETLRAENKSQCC

GFP-RAB32 T39N = biological target: T3, GFP-RAB32 T39N (UniProt Q13637)
T3 sequence: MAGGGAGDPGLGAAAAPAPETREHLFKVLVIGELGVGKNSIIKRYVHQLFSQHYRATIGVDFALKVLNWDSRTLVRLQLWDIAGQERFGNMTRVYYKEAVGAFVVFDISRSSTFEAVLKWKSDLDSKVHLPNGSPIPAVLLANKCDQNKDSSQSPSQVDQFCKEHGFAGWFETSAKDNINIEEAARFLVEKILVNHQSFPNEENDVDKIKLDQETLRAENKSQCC

binding (GFP-RAB32 Q85L): binds
binding (GFP-RAB32): binds
binding (GFP-RAB32 T39N): no binding
B1: mCherry-LRMDA (protein, UniProt A0A087WWI0 1-226)
chain: MAGLVVRGTQVSYIGQDCREIPEHLGRDCGHFAKRLDLSFNLLRSLEGLSAFRSLEELILDNNQLGDDLVLPGLPRLHTLTLNKNRITDLENLLDHLAEVTPALEYLSLLGNVACPNELVSLEKDEEDYKRYRCFVLYKLPNLKFLDAQKVTRQEREEALVRGVFMKVVKPKASSEDVASSPERHYTPLPSASRELTSHQGVLGKCRYVYYGKNSEGNRFIRDDQL
